For 39 variants, self-cleavage results are on record in the RNAGym collection of RNA variant scans (doi:10.7554/elife.90254).

The source gives no read counts; variants with many changes may rest on few reads.

The labels stand for the following.
B1: LINE1-full (parent)
chain: UACGUAGGUGGUUUUCCCCUGAUAGUGCUAAGGGGGCCUGGAAGUUUGGACUGGGCAGAGCUCAACACAGCGUGGCAAAGUGGCUGUGGCUAGACUGCCUCUCUGGAUUCCUCGUCACUCAGCAGGGCAUCUCUGAGAGAAAUGCC

In this data set the parent is B1. In words: self-cleavage, relative activity (ratio to wild type); higher = more cleavage; in vitro, sequencing; the parent is a self-cleaving ribozyme.
For the variant UACGUAGGUGGUUUUCCCCUGAUAGUGCUAAGGGGGCCUGGAAGUUUGGACUGGGCAGAGCUCAACACAGCGUGGCAAAGUGGCUGUGGCUAGGCCGCCUCUCUGGAUUCCCCGUCACUCAGCAGGGCAUCUCUGAGAGAAAUGCC, the self-cleavage turned out to be 0.
The value for UACGUAGGUGGUUUUCCCCUGAUAGUGCUAAGGGGGCCUGGAAGUUUGGACUGGGCAGAGCUCAACACAGCGUGGCAAAGUGGCUGUGGCUAGGCUGCCUCCCUGGAUUCCUCGUCACUCAGCUGGGCAUCUCUGAGAGAAAUGCC was 0.39.
The value for UACGUAGGUGGUUUUCCCCUGAUAGUGCUAAGGGGGCCUGGAAGUUUGGACUGGGCAGAGCUCAACACAGCGUGGCAAAGUGGCUGUGGCUUGACUGCCUCUCUGGAUUCCUCGCCACUCAGCAGGGCAUCUCUGGGAGAAAUGCC was 1.11.
For the variant UACGUAGGUGGUUUUCCCCUGAUAGUGCUAAGGGGGCCUGGAAGUUUGGACUGGGCAGAGCUCAACACAGCGUGGCAAAGUGGCUGUGGCUAUACUACCUUUCUGGAUUCCUCGUCACUCAGCAGGGCAUCUCUGAGAGAAAUGCC, the self-cleavage stood at 0.06.
Then UACGUAGGUGGUUUUCCCCUGAUAGUGCUAAGGGGGCCUGGAAGUUUGGACUGGGCAGAGCUCAACACAGCGUGGCAAAGUGGCUGUGGCUAGGCUGCCUCUCUGGUUUCCUCGUCACUCAGCAGGGCAACUCUGAGAGAAAUGCC, with 0.26; and UACGUAGGUGGUUUUCCCCUGAUAGUGCUAAGGGGGCCUGGAAGUUUGGACUGGGCAGAGCUCAACACAGCGUGGCAAAGUGGCUGUGGCUAGACAGCCUCUCUGGAUUCCUCGUCGCUCAGCAGGGCAUCUCUGAAAGAAAUGCC, with 0.21.
Regarding UACGUAGGUGGUUUUCCCCUGAUAGUGCUAAGGGGGCCUGGAAGUUUGGACUGGGCAGAGCUCAACACAGCGUGGCAAAGUGGCUGUGGCUAGGCUGCCUCUCUGGAUUCCGCGUCACUCAGCAGGGCAUCUCUGAGGGAAAUGCC, the self-cleavage turned out to be 0.
For UACGUAGGUGGUUUUCCCCUGAUAGUGCUAAGGGGGCCUGGAAGUUUGGACUGGGCAGAGCUCAACACAGCGUGGCAAAGUGGCUGUGGCUAGGCUGCCUCUCUGGAUACCUCGUCACUCAGCAGGGCGUCUCCGAGAGAAAUGCC, the self-cleavage stood at 0.34.
As for UACGUAGGUGGUUUUCCCCUGAUAGUGCUAAGGGGGCCUGGAAGUUUGGACUGGGCAGAGCUCAACACAGCGUGGCAAAGUGGCUGUGGCUAGAAUGCCUCUCUGGAUUCCUCGUCACACAGCAGGGCAUCUCAGAGAGAAAUGCC, the self-cleavage amounted to 0.05.
For the variant UACGUAGGUGGUUUUCCCCUGAUAGUGCUAAGGGGGCCUGGAAGUUUGGACUGGGCAGAGCUCAACACAGCGUGGCAAAGUGGCUGUGGCUAUACUGCCUCUCUGGACUCCUCGUCACCCAGCAGGGCAUCUCUGAGAGAAAUGCC, the self-cleavage was determined as 0.
Then UACGUAGGUGGUUUUCCCCUGAUAGUGCUAAGGGGGCCUGGAAGUUUGGACUGGGCAGAGCUCAACACAGCGUGGCAAAGUGGCUGUGGCUAGGCUGCCUCUCUGGAUUCCUCGUCACCCAGCAGGGCAUCUCUGAGAGAAAGGCC, with 0.63; and UACGUAGGUGGUUUUCCCCUGAUAGUGCUAAGGGGGCCUGGAAGUUUGGACUGGGCAGAGCUCAACACAGCGUGGCAAAGUGGCUGUGGCUAGAUUGCCUCUCUGGAUUCUUCGUCACUCAGCAGGGCGUCCCUGAGAGAAAUGCC, with 0.16.
The value for UACGUAGGUGGUUUUCCCCUGAUAGUGCUAAGGGGGCCUGGAAGUUUGGACUGGGCAGAGCUCAACACAGCGUGGCAAAGUGGCUGUGGCUAGGCUGCCCCUCUGGACUCCUCGUCACUCAGCAGGGCAUCUCUGAGAGAAAUGCC was 0.37; that for UACGUAGGUGGUUUUCCCCUGAUAGUGCUAAGGGGGCCUGGAAGUUUGGACUGGGCAGAGCUCAACACAGCGUGGCAAAGUGGCUGUGGCUAGGCUGCCCCUCUGGAUUCCUCGUCACUCAGCAGGGCAUCUCGGAGAGAGAUGCC was 0.4; that for UACGUAGGUGGUUUUCCCCUGAUAGUGCUAAGGGGGCCUGGAAGUUUGGACUGGGCAGAGCUCAACACAGCGUGGCAAAGUGGCUGUGGCUAGGCUGCCUCUCUGGAUUCCUCGUCACUCAGCAGGGCAUCUCUGAGAGUAGUGCC was 0.09.
Then UACGUAGGUGGUUUUCCCCUGAUAGUGCUAAGGGGGCCUGGAAGUUUGGACUGGGCAGAGCUCAACACAGCGUGGCAAAGUGGCUGUGGCUAGGCUGCCUCUCUGGAUUCCCCGUCACUCAGCAGGGCAUCUCUGAGAGAAAAGCC, with 0.25; and UACGUAGGUGGUUUUCCCCUGAUAGUGCUAAGGGGGCCUGGAAGUUUGGACUGGGCAGAGCUCAACACAGCGUGGCAAAGUGGCUGUGGCUAGGCUGCCUCUCUGGAUUCCUCGUCACUCAGCAGGGCUUCUCUGAGGGAAAUGCC, with 0.19.
For the variant UACGUAGGUGGUUUUCCCCUGAUAGUGCUAAGGGGGCCUGGAAGUUUGGACUGGGCAGAGCUCAACACAGCGUGGCAAAGUGGCUGUGGCUAGGCUGCCUCUCUGGAUUCCACGUCACUCAGCAGGGCAUCUCUGAGAGGAAUGCC, the self-cleavage came out at 0.41.
The value for UACGUAGGUGGUUUUCCCCUGAUAGUGCUAAGGGGGCCUGGAAGUUUGGACUGGGCAGAGCUCAACACAGCGUGGCAAAGUGGCUGUGGCUAGGCUGCCUCUCCGGAUCCCUCGUCACUCUGCAGGGCAUCUCUGAGAGAAAUGCC was 0; that for UACGUAGGUGGUUUUCCCCUGAUAGUGCUAAGGGGGCCUGGAAGUUUGGACUGGGCAGAGCUCAACACAGCGUGGCAAAGUGGCUGUGGCUAAACUGCCACUCAGGAUUCCUCGUCACUCAGCAGGGCAUCUCUGAGAGAAAUGCC was 0.08.
As for UACGUAGGUGGUUUUCCCCUGAUAGUGCUAAGGGGGCCUGGAAGUUUGGACUGGGCAGAGCUCAACACAGCGUGGCAAAGUGGCUGUGGCUAGUCCGCCUCUCAGGAUUCCUCGUCACUCAGCAGGGCAUCUCUGAGAGAGAUGCC, the self-cleavage is 0.
Then UACGUAGGUGGUUUUCCCCUGAUAGUGCUAAGGGGGCCUGGAAGUUUGGACUGGGCAGAGCUCAACACAGCGUGGCAAAGUGGCUGUGGCUAGGCCGCCUCUCUGGAUUCCUCCUCACUCAGCAGGGCAUCUCUGAGAGAAAUGCC, with 0.08; and UACGUAGGUGGUUUUCCCCUGAUAGUGCUAAGGGGGCCUGGAAGUUUGGACUGGGCAGAGCUCAACACAGCGUGGCAAAGUGGCUGUGGCUAGUCUGCCUCUCCGGAUUCCUCGUCACUCAGCGGGGCAUCUCUGAGAGAAAUGCC, with 0.21; and UACGUAGGUGGUUUUCCCCUGAUAGUGCUAAGGGGGCCUGGAAGUUUGGACUGGGCAGAGCUCAACACAGCGUGGCAAAGUGGCUGUGGCUAGACAGCCUCUCUGGGUUCCUCGUCACUCAGCAGGGCAUCUCUGAGAGAGAUGCC, with 0.17.
The value for UACGUAGGUGGUUUUCCCCUGAUAGUGCUAAGGGGGCCUGGAAGUUUGGACUGGGCAGAGCUCAACACAGCGUGGCAAAGUGGCUGUGGCUAGACAGCCUCUCUGGAUUGCUCGUCACUCAGCAGGGCGCCUCUGAGAGUAAUGCC was 0; that for UACGUAGGUGGUUUUCCCCUGAUAGUGCUAAGGGGGCCUGGAAGUUUGGACUGGGCAGAGCUCAACACAGCGUGGCAAAGUGGCUGUGGCUAUACUGCCCCUCUGGAUUCCUCGUCACUCAGCAGGGCUUCUCUGAGAGAAAUGCC was 0.01.
As to UACGUAGGUGGUUUUCCCCUGAUAGUGCUAAGGGGGCCUGGAAGUUUGGACUGGGCAGAGCUCAACACAGCGUGGCAAAGUGGCUGUGGCUAGGCUGCCUCUCUGGAUUCCUCGUCGCUCAUCAGGGCAUCUCUGAGAGAAAUGCC, the self-cleavage was found to be 0.16.
The value for UACGUAGGUGGUUUUCCCCUGAUAGUGCUAAGGGGGCCUGGAAGUUUGGACUGGGCAGAGCUCAACACAGCGUGGCAAAGUGGCUGUGGCUAGGCUGCCUCCCUGGAUUCCUCGUCACUCAGCAGGGCAUCUCUGAGAGGAAUGCC was 0; that for UACGUAGGUGGUUUUCCCCUGAUAGUGCUAAGGGGGCCUGGAAGUUUGGACUGGGCAGAGCUCAACACAGCGUGGCAAAGUGGCUGUGGCUAGACAGCCUCUCUGGAUUCCUCGUCACUCGGCAGGGCAUCUCUGAGAGAAGUGCC was 0.09; that for UACGUAGGUGGUUUUCCCCUGAUAGUGCUAAGGGGGCCUGGAAGUUUGGACUGGGCAGAGCUCAACACAGCGUGGCAAAGUGGCUGUGGCUAGGCUGCCUCUCUGGAUUCCUCGUCACUCAGCAGGGCAUCUCUGCGAGAGAUGCC was 0.
Then UACGUAGGUGGUUUUCCCCUGAUAGUGCUAAGGGGGCCUGGAAGUUUGGACUGGGCAGAGCUCAACACAGCGUGGCAAAGUGGCUGUGGCUAGACAGCCUCUCUGGGUUCCCCGUCACUCAGCAGGACAUCUCUGAGAGAAAUGCC, with 0.
Then UACGUAGGUGGUUUUCCCCUGAUAGUGCUAAGGGGGCCUGGAAGUUUGGACUGGGCAGAGCUCAACACAGCGUGGCAAAGUGGCUGUGGCUAGUCUGCCUCUCUGGAUUCCUCGUCACUCAGCAGGGCAUCUCCGAGAGGAAUGCC, with 0.31.
For UACGUAGGUGGUUUUCCCCUGAUAGUGCUAAGGGGGCCUGGAAGUUUGGACUGGGCAGAGCUCAACACAGCGUGGCAAAGUGGCUGUGGCUAGGCUGCCCCUCUGGAUUCCUCGUCACUCAGCAGGGCAUCUCCGAGAGAAAUGCC, the self-cleavage was found to be 0.
The value for UACGUAGGUGGUUUUCCCCUGAUAGUGCUAAGGGGGCCUGGAAGUUUGGACUGGGCAGAGCUCAACACAGCGUGGCAAAGUGGCUGUGGCUAGGCUGCCUCUCCGGACUCCUCGUCACUCAGCAGGGCAUCUCUGAGAGGAAUGCC was 1.15.
In the case of UACGUAGGUGGUUUUCCCCUGAUAGUGCUAAGGGGGCCUGGAAGUUUGGACUGGGCAGAGCUCAACACAGCGUGGCAAAGUGGCUGUGGCUAGGCUGCCUCUCUGGAUUCCCCGUCACUCAGCAGGGCAUCUCUAAGAGAAAUGCC, the self-cleavage was 0.17.
With UACGUAGGUGGUUUUCCCCUGAUAGUGCUAAGGGGGCCUGGAAGUUUGGACUGGGCAGAGCUCAACACAGCGUGGCAAAGUGGCUGUGGCUAAACUGCCUCUCUGGAUUCCUCGACUCUCAGCAGGGCAUCUCUGAGAGAAGUGCC, the self-cleavage is 0.04.
Then UACGUAGGUGGUUUUCCCCUGAUAGUGCUAAGGGGGCCUGGAAGUUUGGACUGGGCAGAGCUCAACACAGCGUGGCAAAGUGGCUGUGGCUAUACUGCCUCUCCGGAUUCCUCGUCACUCAGCAGGGCAUCUCUGAGAGAAAUGCU, with 0.05; and UACGUAGGUGGUUUUCCCCUGAUAGUGCUAAGGGGGCCUGGAAGUUUGGACUGGGCAGAGCUCAACACAGCGUGGCAAAGUGGCUGUGGCUAUACUGCCUCUCUGGAUUCCUCGUCACUCUGCAGGGCAUCUCUGAGUGAAAUGCC, with 0.09; and UACGUAGGUGGUUUUCCCCUGAUAGUGCUAAGGGGGCCUGGAAGUUUGGACUGGGCAGAGCUCAACACAGCGUGGCAAAGUGGCUGUGGCUUGACUGCCUCUCUGGAUUCCUCGACACUCAGCAGGGCAUCUCUGAGAGAAGUGCC, with 0.56.
